Results published in patent US9603889B2, “IAP antagonists” (BRISTOL-MYERS SQUIBB COMPANY, priority 2012, dated 2017).

These compounds were tested against XIAP BIR2 (His-BIR2 (124-240/C202A/C213G)) (Homo sapiens (Human), UniProt P98170, C202A/C213G). Details: read-out: XIAP-BIR2 AlphaScreen IC50; 50 nM His-BIR2 (124-240/C202A/C213G), 50 nM Biotinylated SMAC peptide.

SMILES | IC50 [nM]
CN[C@@H](C)C(=O)N[C@H](C(=O)N1C[C@@H](NC(=O)c2ccc(CN(C(=O)[C@@H]3Cc4ccccc4CN3C(=O)[C@@H](NC(=O)[C@H](C)NC)C(C)(C)C)[C@H](C)c3cccc(OC)c3)cc2)C[C@H]1C(=O)N[C@@H]1CCCc2ccccc21)C(C)(C)C [Example 3, (S)-2-((S)-3,3-Dimethyl-2-((S)-2-(methylamino)propanamido)butanoyl)-N-(4-(((3S,5S)-1-((S)-3,3-dimethyl-2-((S)-2-(methylamino)propanamido)butanoyl)-5-(((R)-1,2,3,4-tetrahydronaphthalen-1-yl)carbamoyl)pyrrolidin-3-yl)carbamoyl)benzyl)-N-((R)-1-(3-methoxyphenyl)ethyl)-1,2,3,4-tetrahydroisoquinoline-3-carboxamide] | 120
CN[C@@H](C)C(=O)N[C@H](C(=O)N1Cc2ccccc2C[C@H]1CN(CCc1cccc2ccccc12)C(=O)c1ccc(C(=O)N[C@H]2C[C@@H](C(=O)N[C@@H]3CCCc4ccccc43)N(C(=O)[C@@H](NC(=O)[C@H](C)NC)C(C)(C)C)C2)cc1)C(C)(C)C [Example 33, N^1-(((S)-2-((S)-3,3-Dimethyl-2-((S)-2-(methylamino)propanamido)butanoyl)-1,2,3,4-tetrahydro-isoquinolin-3-yl)methyl)-N^4-((3S,5S)-1-((S)-3,3-dimethyl-2-((S)-2-(methylamino)propanamido)butanoyl)-5-(((R)-1,2,3,4-tetrahydro-naphthalen-1-yl)carbamoyl)pyrrolidin-3-yl)-N^1-(2-(naphthalen-1-yl)ethyl) terephthalamide] | 900
CN[C@@H](C)C(=O)N[C@H](C(=O)N1C[C@@H](NC(=O)c2ccc(CN(Cc3ccccc3)C(=O)[C@@H]3Cc4ccccc4CN3C(=O)[C@@H](NC(=O)[C@H](C)NC)C(C)(C)C)cc2)C[C@H]1C(=O)N[C@@H]1CCCc2ccccc21)C(C)(C)C [Example 13, (S)-N-Benzyl-2-((S)-3,3-dimethyl-2-((S)-2-(methylamino)propanamido)butanoyl)-N-(4-(((3S,5S)-1-((S)-3,3-dimethyl-2-((S)-2-(methylamino)propanamido)butanoyl)-5-(((R)-1,2,3,4-tetrahydro-naphthalen-1-yl)carbamoyl)pyrrolidin-3-yl)carbamoyl)benzyl)-1,2,3,4-tetra-hydroisoquinoline-3-carboxamide] | 600
CN[C@@H](C)C(=O)N[C@H](C(=O)N1Cc2ccccc2C[C@H]1CN(C(=O)c1ccc(C(=O)N[C@H]2C[C@@H](C(=O)N[C@@H]3CCCc4ccccc43)N(C(=O)[C@@H](NC(=O)[C@H](C)NC)C(C)(C)C)C2)cc1)[C@H](C)c1ccccc1F)C(C)(C)C [Example 37, N^1-(((S)-2-((S)-3,3-Dimethyl-2-((S)-2-(methylamino)propanamido)butanoyl)-1,2,3,4-tetrahydro-isoquinolin-3-yl)methyl)-N^4-((3S,5S)-1-((S)-3,3-dimethyl-2-((S)-2-(methylamino)propanamido)butanoyl)-5-(((R)-1,2,3,4-tetrahydro-naphthalen-1-yl)carbamoyl)pyrrolidin-3-yl)-N^1-((R)-1-(2-fluorophenyl)ethyl) terephthalamide] | 650
CN[C@@H](C)C(=O)N[C@H](C(=O)N1CCc2ccccc2[C@H]1C(=O)N(Cc1ccc(C(=O)N[C@H]2C[C@@H](C(=O)N[C@@H]3CCCc4ccccc43)N(C(=O)[C@@H](NC(=O)[C@H](C)NC)C(C)(C)C)C2)cc1)[C@H](C)c1ccccc1F)C(C)(C)C [Example 19, (S)-2-((S)-3,3-Dimethyl-2-((S)-2-(methylamino)propanamido)butanoyl)-N-(4-(((3S,5S)-1-((S)-3,3-dimethyl-2-((S)-2-(methylamino)propanamido)butanoyl)-5-(((R)-1,2,3,4-tetra-hydronaphthalen-1-yl)carbamoyl)pyrrolidin-3-yl)carbamoyl)benzyl)-N-((R)-1-(2-fluorophenyl)ethyl)-1,2,3,4-tetrahydro-isoquinoline-1-carboxamide] | 1870
CN[C@@H](C)C(=O)N[C@H](C(=O)N1CC(NC(=O)c2ccc(CN(C(=O)[C@@H]3Cc4ccccc4CN3C(=O)[C@@H](NC(=O)[C@H](C)NC)C(C)(C)C)C(C)c3ccccc3Cl)cc2)C[C@H]1C(=O)NC1CCCc2ccccc21)C(C)(C)C (stereo partly drawn) [Example 26, (3S)-N-(1-(2-Chlorophenyl)ethyl)-2-((S)-3,3-dimethyl-2-((S)-2-(methylamino)propanamido)butanoyl)-N-(4-(((3S,5S)-1-((S)-3,3-dimethyl-2-((S)-2-(methylamino)propanamido)butanoyl)-5-(((R)-1,2,3,4-tetrahydro-naphthalen-1-yl)carbamoyl)pyrrolidin-3-yl)carbamoyl)benzyl)-1,2,3,4-tetra-hydroisoquinoline-3-carboxamide] | 100
CN[C@@H](C)C(=O)N[C@H](C(=O)N1Cc2ccccc2C[C@H]1CN(C(=O)c1ccc(C(=O)N[C@H]2C[C@@H](C(=O)N[C@@H]3CCCc4ccccc43)N(C(=O)[C@@H](NC(=O)[C@H](C)NC)C(C)(C)C)C2)cc1)[C@H](C)Cc1ccc2ccccc2c1)C(C)(C)C [Example 30, N^1-(((S)-2-((S)-3,3-Dimethyl-2-((S)-2-(methylamino)propanamido)butanoyl)-1,2,3,4-tetrahydro-isoquinolin-3-yl)methyl)-N^4-((3S,5S)-1-((S)-3,3-dimethyl-2-((S)-2-(methylamino)propanamido)butanoyl)-5-(((R)-1,2,3,4-tetrahydro-naphthalen-1-yl)carbamoyl)pyrrolidin-3-yl)-N^1-((R)-1-(naphthalen-2-yl)propan-2-yl) terephthalamide] | 760
CN[C@@H](C)C(=O)N[C@H](C(=O)N1CC(NC(=O)C2CC2CN(C(=O)[C@@H]2Cc3ccccc3CN2C(=O)[C@@H](NC(=O)[C@H](C)NC)C(C)(C)C)[C@H](C)c2ccccc2F)C[C@H]1C(=O)NC1CCCc2ccccc21)C(C)(C)C (stereo partly drawn) [Example 42, (3S)-2-((S)-3,3-Dimethyl-2-((S)-2-(methylamino)propanamido)butanoyl)-N-((2-(((3S,5S)-1-((S)-3,3-dimethyl-2-((S)-2-(methylamino)propanamido)butanoyl)-5-(((R)-1,2,3,4-tetrahydronaphthalen-1-yl)carbamoyl)pyrrolidin-3-yl)carbamoyl)cyclopropyl)methyl)-N-((R)-1-(2-fluorophenyl)ethyl)-1,2,3,4-tetrahydroisoquinoline-3-carboxamide] | 330
CN[C@@H](C)C(=O)N[C@H](C(=O)N1C[C@@H](NC(=O)CCCN(C(=O)[C@@H]2Cc3ccccc3CN2C(=O)[C@@H](NC(=O)[C@H](C)NC)C(C)(C)C)[C@H](C)c2ccccc2F)C[C@H]1C(=O)N[C@@H]1CCCc2ccccc21)C(C)(C)C [Example 41, (S)-2-((S)-3,3-Dimethyl-2-((S)-2-(methylamino)propanamido)butanoyl)-N-(4-(((3S,5S)-1-((S)-3,3-dimethyl-2-((S)-2-(methylamino)propanamido)butanoyl)-5-(((R)-1,2,3,4-tetrahydronaphthalen-1-yl)carbamoyl)pyrrolidin-3-yl)amino)-4-oxobutyl)-N-((R)-1-(2-fluorophenyl)ethyl)-1,2,3,4-tetrahydroisoquinoline-3-carboxamide] | 110
